Measured values taken from publication PMC4336329 (PLoS ONE, 2015).
The campaign covered roughly 310,000 compounds. About 2,200 (0.71%) showed an effect of 50% or more. Effects have a minus sign here. The list shows a part of the results.

The molecules below were run against human ether-à-go-go-related gene (hERG) potassium channel (human, UniProt Q12809) (assay: primary screen, population patch clamp on CHO cells stably expressing hERG).
Sequence of human ether-à-go-go-related gene (hERG) potassium channel (Q12809 whole entry, looked up): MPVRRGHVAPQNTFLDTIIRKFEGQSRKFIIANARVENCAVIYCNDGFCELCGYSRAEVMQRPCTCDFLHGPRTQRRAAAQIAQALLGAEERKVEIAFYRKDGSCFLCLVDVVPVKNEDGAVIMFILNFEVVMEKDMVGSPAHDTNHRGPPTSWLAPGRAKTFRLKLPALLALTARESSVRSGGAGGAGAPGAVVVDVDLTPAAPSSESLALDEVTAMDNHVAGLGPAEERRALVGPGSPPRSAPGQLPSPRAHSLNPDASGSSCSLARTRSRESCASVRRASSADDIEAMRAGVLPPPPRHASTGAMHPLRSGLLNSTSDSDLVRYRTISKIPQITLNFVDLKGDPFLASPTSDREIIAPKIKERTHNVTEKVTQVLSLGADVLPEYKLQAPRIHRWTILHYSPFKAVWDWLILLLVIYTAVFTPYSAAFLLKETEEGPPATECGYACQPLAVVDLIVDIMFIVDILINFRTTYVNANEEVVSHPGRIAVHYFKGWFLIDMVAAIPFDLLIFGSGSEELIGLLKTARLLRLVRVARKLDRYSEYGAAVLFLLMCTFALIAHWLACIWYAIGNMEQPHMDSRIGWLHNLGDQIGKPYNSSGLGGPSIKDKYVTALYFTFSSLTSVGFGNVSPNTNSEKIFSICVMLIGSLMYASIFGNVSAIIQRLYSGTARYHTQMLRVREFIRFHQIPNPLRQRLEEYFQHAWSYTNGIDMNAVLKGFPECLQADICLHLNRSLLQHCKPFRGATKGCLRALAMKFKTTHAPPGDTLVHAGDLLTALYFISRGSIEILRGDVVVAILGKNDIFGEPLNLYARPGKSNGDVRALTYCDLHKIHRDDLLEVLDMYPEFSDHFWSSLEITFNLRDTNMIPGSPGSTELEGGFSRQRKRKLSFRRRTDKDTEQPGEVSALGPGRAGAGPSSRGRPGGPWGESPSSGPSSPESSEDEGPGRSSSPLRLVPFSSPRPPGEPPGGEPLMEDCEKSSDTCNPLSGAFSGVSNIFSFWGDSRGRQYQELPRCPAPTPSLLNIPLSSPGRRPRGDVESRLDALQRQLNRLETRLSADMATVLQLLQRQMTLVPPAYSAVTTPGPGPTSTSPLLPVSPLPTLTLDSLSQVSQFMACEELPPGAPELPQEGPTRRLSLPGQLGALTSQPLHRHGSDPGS

| SMILES | hERG current change (%, negative = inhibition) at 1uM [%] |
| --- | --- |
| c1cnc2ccc(C(c3nnnn3C3CCCCC3)N3CCN(C4CCCCC4)CC3)cc2c1 (centres unmarked) | -87 |
| COc1cc(OC)c(OC)cc1/C=N/NC(=O)C[n+]1ccccc1.[Cl-] | -2.3 |
| CSc1nnc(COc2ccc(C)cc2)n1N | 17.2 |
| CC(C)N(Cc1ccccc1)C(=O)c1cccs1 | 16.1 |
| CCN(CC(=O)Nc1c(F)cccc1F)C(=O)c1cnccn1 | 6.4 |
| Cc1ccc(Cl)cc1Nc1nc(-c2sc(NC(=O)c3ccccc3)nc2C)cs1 | 5.57 |
| COc1cccc(NC(=O)C(=O)N/N=C(\C)CC(=O)Nc2ccc(NC(C)=O)cc2)c1 | 19.6 |
| Cl.c1ccc(CC2=NCCN2)cc1 | 14.8 |
| COc1ccc(N(C)S(=O)(=O)c2cccc(C(=O)OCC(=O)Nc3sc4c(c3C#N)CCCCC4)c2)cc1 | 7.01 |
| COc1ccccc1C(=O)Nc1ccc2c(c1)nc(CN1CCN(C(C)=O)CC1)n2C | -19.7 |
| Cc1c(CCC(=O)O)c(=O)oc2c(C)c3occ(-c4ccc(Br)cc4)c3cc12 | 14.8 |
| Cc1nc2ccccc2c(=O)n1/N=C/c1ccccc1O | 7.95 |
| CCO[C@@H]1OC(C(=O)NCc2nc3ccccc3[nH]2)=C[C@H](C)[C@H]1CCCO | 1.7 |
| CCOC(=O)c1[nH]c(C)c(C(=O)Nc2ccccc2F)c1C | -0.649 |
| NC(=O)N/N=C/c1ccc(-c2ccc([N+](=O)[O-])cc2)o1 | 5.21 |
| O=C(CSc1ccccn1)Nc1cccc(S(=O)(=O)N2CCCC2)c1 | -1.52 |
| Cc1ccc(C(=O)OC(C)C(=O)NC2CCCCC2C)s1 (centres unmarked) | 2.91 |
| O=C(O)c1cccc(COc2ccccc2Cl)c1 | 4.17 |
| COc1ccc(C(=O)NCC(=O)N/N=C/C(C)=C/c2ccccc2)cc1OC | -4.74 |
| Cc1nc2ccc([N+](=O)[O-])cc2c(=O)n1Cc1ccc([N+](=O)[O-])cc1 | -76.5 |
| COc1ccc(N2CCC(CNS(=O)(=O)c3cccc(C(F)(F)F)c3)C2)cc1 (centres unmarked) | 4.38 |
| CCOC(=O)CN1C(=O)N[C@@H](c2ccccc2)C(C(C)=O)=C1C | 11.7 |

| SMILES | hERG current change (%, negative = inhibition) at 1uM [%] |
| --- | --- |
| CC(=O)Nc1cc(NC(C)=O)cc(C(=O)OCC(=O)N2CC(C)OC(C)C2)c1 (centres unmarked) | 0.114 |
| CC(=O)c1c2c3c(c(Br)ccc3n(C)c1=O)C(=O)c1ccccc1-2 | 15.6 |
| O=C(c1ccc(Cl)c(Cl)c1)N1CCC(=O)N(C(COCc2cccc(Cl)c2)Cc2ccccc2)CC1 (centres unmarked) | 8.49 |
| Cc1ccccc1N1C(=O)c2ccccc2N2C(=O)c3ccccc3C12 (centres unmarked) | -1.93 |
| O=C1Nc2ccccc2C12OC1CCCCC1O2 (centres unmarked) | -4.13 |
| CCc1ccc(C(=O)COC(=O)CNC(=O)CNC(=O)Cc2ccccc2)cc1 | 14 |
| Cc1ccc(CNC(=O)c2cn(C)c(=O)c3c2c2ccccc2n3C)o1 | 12.2 |
| CC(=O)Nc1ccc2c(c1)nc(CCN1CCC(C)CC1)n2C | 12.4 |
| CCCCCCCn1c(=N)n(CC(O)c2ccco2)c2ccccc21.Cl (centres unmarked) | -76.8 |
| CC(C)NC(=O)c1ccccc1NC(=O)C1COc2ccccc2O1 (centres unmarked) | 27 |
| CCN(CC)c1ccc(/C=C2\NC(=O)NC2=O)cc1 | 5.67 |
| CCOC(=O)c1cccc(NC(=O)Cn2c(CC(=O)NC)nc3ccccc32)c1 | 1.54 |
| O=C(Nc1cccc(Cn2cccn2)c1)c1cc2c(s1)CCCC2 | -2.29 |
| c1ccc2c3c([nH]c2c1)C1(CCNCC1)NCC3 | 0.772 |
| CCCCC[n+]1ccn(C2=C([O-])c3ccccc3C(=O)/C2=N\S(=O)(=O)c2ccc(Cl)cc2)c1 | 6.9 |
| CC(C)CN1C(=O)c2ccc(C(=O)Nc3nccs3)cc2C1=O | 3.39 |
| CC(=O)N1CCc2c(sc(NC(=O)C3CCCN3S(=O)(=O)c3cccs3)c2C(N)=O)C1 (centres unmarked) | 15.9 |
| CCOC(=O)NC(=O)CSc1nc(-c2ccc(C)c(C)c2)cn1-c1ccccc1 | 7.91 |
| CCn1c(-c2ccccc2)csc1=Nc1ccc(S(=O)(=O)O)cc1 | 14.5 |
| O=C(Cc1csc(-c2ccccc2)n1)Nc1ccc(C(F)(F)F)cc1 | 5.33 |
| Cn1c(SCC(=O)N2CCN(c3ccccc3)CC2)nnc1-c1cc2ccccc2o1 | -1.8 |
| COc1cccc(C(=O)NNC2=C(C(=O)C(F)(F)F)CCC2)c1 | 6.8 |

| SMILES | hERG current change (%, negative = inhibition) at 1uM [%] |
| --- | --- |
| O=C(O)CSc1nnc(COc2cccc3ccccc23)n1Cc1ccccc1 | 16.3 |
| O=C(Cn1c(C(F)(F)F)nc2ccccc21)c1ccc(F)cc1 | 12.1 |
| COc1ccc(S(=O)(=O)Nc2ccc(S(=O)(=O)N3CCCC3)cc2)cc1 | 4.04 |
| COc1ccc(NC(=O)/C(C#N)=C\c2ccc(-c3cc(C(=O)O)ccc3C)o2)cc1 | 11.5 |
| Br.c1ccc(NC2=NCCCS2)cc1 | 2.35 |
| CC(C)COC(=O)Nc1nnc(SCc2ccccc2F)s1 | 7.02 |
| CC(=O)c1ccc(N2CCN(C(=O)C(=O)c3cn(CC(=O)N4CCCCCC4)c4ccccc34)CC2)cc1 | -4.98 |
| CC(=O)Nc1sc(N/N=C\c2ccc(O)cc2)nc1-c1cccs1 | 8.62 |
| Cc1ccccc1NC(=O)/C=C/c1cccc(C(F)(F)F)c1 | 8.04 |
| O=C(Nc1cccc2ccccc12)N1CCN(c2ccc(F)cc2)CC1 | 9.05 |
| COc1ccc(C(=O)CN2C(=O)NC3(CCCCCC3)C2=O)cc1 | 7.85 |
| Brc1ccc(-c2nnc3c4ccccc4nc(N4CCOCC4)n23)cc1 | 2.14 |
| O=C(Nc1ccc(Cl)cc1)[C@@H]1[C@@H]2C(=O)N(c3ccc(Cl)cc3Cl)C(=O)[C@@H]2[C@H]2C=CC=NN21 | 1.63 |
| O=C(O)c1cccc(S(=O)(=O)N(Cc2ccccc2)c2cccc(C(F)(F)F)c2)c1 | 7.65 |
| CC(C)c1ccc(C2c3[nH]c4ccccc4c3C[C@H]3C(=O)N(c4ccccc4C(=O)N4CCC[C@H]4C(=O)O)C(=O)N23)cc1 (some centres unmarked) | 7.2 |
| CCc1ccc(OCC(=O)NC(NC(=S)Nc2ccccc2OC)C(Cl)(Cl)Cl)cc1 (centres unmarked) | 8.97 |
| Cc1ccc(-n2nnnc2SCC(=O)c2cc(C)n(-c3cc(C)on3)c2C)c(C)c1 | 4.54 |
| COc1ccc(CCNc2ncnc3c2[nH]c2cc(OC)c(OC)cc23)cc1OC | 11 |
| Cc1ccc(C)c(NC(=S)NC(NC(=O)Cc2ccccc2)C(Cl)(Cl)Cl)c1 (centres unmarked) | 10.9 |
| COc1ccc(S(=O)(=O)Nc2c(O)ccc3ccccc23)cc1OC | -2.21 |
| Cn1nccc1C(=O)NC(=S)Nc1sc2c(c1C#N)CCCCC2 | 15.4 |
| CCOC(=O)c1cnn2c(C(F)F)cc(C3CC3)nc12 | 10 |

| SMILES | hERG current change (%, negative = inhibition) at 1uM [%] |
| --- | --- |
| CCOC(=O)C1CCN(C(=O)CCc2c(C)nc3cc(-c4ccccc4)nn3c2C)CC1 | -62 |
| Cn1c(O)c(C=NCCCNC2CCCCC2)c(=O)n(C)c1=O | 7.59 |
| Cl.c1ccc2c(CN3CCCCC3)csc2c1 | 0.577 |
| N/C(=N\OC(=O)c1ccccc1F)c1ccc([N+](=O)[O-])cc1 | 11.4 |
| CCCOP(=O)(OCCC)C(Nc1ccc(C(=O)O)cc1)c1ccccc1 (centres unmarked) | 6.82 |
| Cc1ccccc1NC(=O)c1oc(=O)c2ccccc2c1-c1ccccc1 | 4.62 |
| O=C(CSC1=NCCN1)C1COc2ccccc2O1 (centres unmarked) | -9.39 |
| OC(c1ccccc1)(c1ccccc1)c1ccn[nH]1 | 8.33 |
| Cc1c(NC(=O)CSC(=S)N2CCCC2)c(=O)n(-c2ccccc2)n1C | 1.72 |
| S=c1[nH]nc(-c2ccc3ccccc3n2)n1-c1ccccc1Cl | 13.2 |
| COc1ccc(OC)c(CN2CCN(C(=O)COc3cccc(C)c3)CC2)c1.O=C(O)C(=O)O | -10.9 |
| Cc1cc(Cl)ccc1N1C(=O)CC(SCCC(=O)O)C1=O (centres unmarked) | 9.04 |
| Cc1nn(Cc2cccc(C(=O)Nc3ccn(Cc4ccccc4F)n3)c2)c(C)c1[N+](=O)[O-] | 5.76 |
| Cc1noc(C)c1C(=O)OCC(=O)Nc1c(F)cccc1F | 8.14 |
| O=C(CSc1nnc(Cn2cnc3ccccc32)o1)Nc1cccc2ccccc12 | 16.4 |
| Br.CCOCc1cn(CC(=O)c2ccc([N+](=O)[O-])cc2)c(C)nc1=N | -1.45 |
| CSC1=NCCN1C(=O)c1cccc(Br)c1 | 4.07 |
| CCOC(=O)CNC(=S)N(Cc1ccccc1)Cc1ccccc1F | 1.56 |
| COc1ccc2ccc(C(C)(C(C)=O)C(=O)OC(C)C)cc2c1 (centres unmarked) | 8.67 |
| O=C(Nc1ccccc1)/C(=C/c1cccnc1)NC(=O)c1ccco1 | -11.1 |
